Results reported in PubChem BioAssay AID1745853 (National Center for Advancing Translational Sciences (NCATS), 2022).
Values joined by “and” are separate entries in the source; they are usually repeats but may differ in a detail not shown here. Identical values can stand only once. The list shows a part of the results. Further columns of the screen follow, without active or inactive calls.

Columns and labels:
Assay in all cases: Primary Screen for Target Class Profiling of Small Molecule Inhibitors of Methyltransferases
[1] = target: Glycine N-methyltransferase (Homo sapiens) (UniProt Q14749); details: purified enzyme, MTase-Glo SAH luminescence; measured here: GNMT inhibition; at 40 µM; stronger effect = lower value
In short: (§1)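 Each enzyme was assayed with SAM and its substrate. SAH formation detected by MTase-Glo luminescence; single-point 40 uM screen[…].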

[2] = target: Guanidinoacetate N-methyltransferase (Homo sapiens) (UniProt Q14353); details: purified enzyme, MTase-Glo SAH luminescence; measured here: GAMT inhibition; at 40 µM; stronger effect = lower value
In short: as §1

[3] = target: Histamine N-methyltransferase (Homo sapiens) (UniProt P50135); details: purified enzyme, MTase-Glo SAH luminescence; measured here: HNMT inhibition; at 40 µM; stronger effect = lower value
In short: as §1

[4] = target: Nicotinamide N-methyltransferase (Homo sapiens) (UniProt P40261); details: purified enzyme, MTase-Glo SAH luminescence; measured here: NNMT inhibition; at 40 µM; stronger effect = lower value
In short: as §1

[5] = target: Phenylethanolamine N-methyltransferase (Homo sapiens) (UniProt P11086); details: purified enzyme, MTase-Glo SAH luminescence; measured here: PNMT inhibition; at 40 µM; stronger effect = lower value
In short: as §1
% is scaled to controls: 0 for no effect and ±100 for the full control effect.

| SMILES | activity change, negative = inhibition [1] | activity change, negative = inhibition [2] | activity change, negative = inhibition [3] | activity change, negative = inhibition [4] | activity change, negative = inhibition [5] |
| --- | --- | --- | --- | --- | --- |
| CCCN(CCC)[C@@H]1CCc2ccc3[nH]c(C#N)cc3c2C1 | 4.17% | 6.93% | -83.3% | -13.1% | 2.42% |
| COc1ccc(NC(=O)N2Cc3ccccc3-n3cccc3C2c2cccc(Cl)c2)cc1OC (centres undefined) | 4.69% | 1.25% | -0.286% | 4.8% | 5.87% |
| CCc1ccc(NC(=O)N2Cc3ccccc3-n3cccc3C2c2ccc(N(C)C)cc2)cc1 (centres undefined) | 4.35% | 5.27% | 2.85% | 2.35% | 2.34% |
| COc1ccc(C2c3cccn3-c3ccccc3CN2C(=O)Nc2ccc3c(c2)OCCO3)cc1 (centres undefined) | 7.26% | 1.78% | -3.52% | -6.09% | -2.57% |
| CCc1ccccc1NC(=O)N1Cc2ccccc2-n2cccc2C1c1ccc(SC)cc1 (centres undefined) | -2.13% | 0% | -2.76% | -3.5% | 1.47% |
| COC(=O)CCNC(=O)N1Cc2ccccc2-n2cccc2C1c1ccc(Cl)cc1 (centres undefined) | -4.25% | 4.49% | 6.7% | -2.08% | 8.84% |
| COc1cccc(CC(=O)N2CC[C@H]3C(=O)NCCCCCN(Cc4cccnc4)[C@@H]3C2)c1 | -4.38% | -6.33% | -8.71% | -10.6% | -28% |
| CCC1c2cccn2-c2ccccc2CN1C(=O)NCc1cccc(OC)c1 (centres undefined) | 0.876% | -0.431% | -6.47% | -8.32% | 0.476% |
| CC[C@H]1CN2CC[C@H]1C[C@@H]2CNCc1ccc(-c2ccccc2)cc1 | -9.79% | -8.04% | -60.6% | -19.5% | -30.3% |
| Cc1ccc(C)c(NC(=O)N2Cc3ccccc3-n3cccc3C2C)c1 (centres undefined) | 3.92% | 0% | 3.33% | 0.454% | 6.34% |
| CN1CCC[C@@H]1Cc1c[nH]c2ccc(Nc3ncccc3[N+](=O)[O-])cc12 | -16.9% and -1.85% | -0.072% and 1.4% | -67.9% and -68.7% | -6.74% and -15.7% | 2.09% and -0.762% |
| Cc1ccccc1C1c2cccn2-c2ccccc2CN1C(=O)Nc1ccccc1F (centres undefined) | 11.6% | 1.12% | 5.03% | 4.43% | -0.894% |
| COc1cccc(CNC(=O)N2Cc3ccccc3-n3cccc3C2c2cccc(C)c2)c1 (centres undefined) | 6.99% | 0% | 3.25% | 4.79% | 4.48% |
| CCOc1ccccc1NC(=O)N1Cc2ccccc2-n2cccc2C1c1ccc(F)cc1 (centres undefined) | 0.03% | 3.21% | 0.074% | -4.08% | 0.117% |
| C[C@H]1CN(Cc2ccc(CC(=O)N3CCC(Nc4cccc(F)c4)CC3)cc2)CCN1 | -9.44% | -12.8% | -3.08% | -25.1% | -6.58% |
| C[C@]12CCC(=O)C=C1CC[C@@H]1[C@@H]2[C@@H](O)C[C@]2(C)C(=O)CC[C@@H]12 | 2.75% | 7.92% | 8.99% | -5.88% | 4.07% |
| C=C1[C@@H]2CC[C@@]3(C)[C@H](c4ccoc4)OC(=O)C[C@]13O[C@H]1CC(=O)C(C)(C)[C@H](C(OC(C)=O)C(=O)OC)[C@]12C (some centres undefined) | 4.91% | 4.65% | 7.16% | -12% | -2.93% |
| COC(=O)c1cccc(NC(=O)N2Cc3ccccc3-n3cccc3C2c2cccs2)c1 (centres undefined) | 5.23% | 2.18% | 5.29% | -1.04% | 1.72% |
| CCc1ccc(C2c3cccn3-c3ccccc3CN2C(=O)Nc2ccc(C)c(F)c2)cc1 (centres undefined) | 9.29% | 4.56% | 1.35% | 2.98% | 6.14% |
| O=C(Nc1ccc2c(c1)OCCO2)N1Cc2ccccc2-n2cccc2C1c1ccc(F)cc1 (centres undefined) | -2.38% | 0% | 4.99% | 3.87% | 6.95% |
| Cc1c(Cl)cccc1NC(=O)N1Cc2ccccc2-n2cccc2C1C(C)C (centres undefined) | 1.27% | 0% | 4.84% | 0.268% | 10.8% |
| CCC(=O)CCCCC[C@@H]1NC(=O)[C@H]2CCCCN2C(=O)[C@H]([C@@H](C)CC)NC(=O)[C@H](Cc2cn(OC)c3ccccc23)NC1=O | -3.6% | – | 8.82% | -3.55% | 13.8% |
| CCN1CCCNCC12CCOCC2 | -0.118% | -1.41% | -0.228% | 0.245% | 0.395% |
| CC(C)(C)c1o[nH]c(=O)c1CC(N)C(=O)O (centres undefined) | -4.58% | 7.58% | -0.909% | -0.703% | 9.06% |
| O=C1CCCN1CC#CCN1CCCC1 | 0.577% | 9.76% | 4.35% | -4.68% | 2.66% |
| COC1CC(OC2CCC3(C=O)C(CCC4C3CCC3(C)C(C5=CC(=O)OC5)CCC43O)C2)OC(C)C1O (centres undefined) | 4.66% | 7.69% | 10% | -4.53% | 6.22% |
| CO[C@H]1C[C@H](O[C@H]2CC[C@@]3(C)C(=CCC4C3CC[C@]3(C)[C@@H](C5=CC(=O)OC5)CC[C@]43O)C2)O[C@@H](C)[C@@H]1O[C@@H]1O[C@H](CO[C@@H]2O[C@H](CO)[C@@H](O)[C@H](O)[C@H]2O)[C@@H](O)[C@H](O)[C@H]1O (some centres undefined) | 4.6% | 1.84% | 8.55% | -10.2% | -2.23% |
| Cc1ccccc1C1c2cccn2-c2ccccc2CN1C(=O)NCc1ccccc1 (centres undefined) | 16% | 1.95% | 6.47% | 9.75% | 10.1% |
| CCOc1ccc(NC(=O)N2Cc3ccccc3-n3cccc3C2C)cc1 (centres undefined) | 6.29% | 0% | -0.901% | 2.91% | 5.69% |
